From PubChem BioAssay AID588591 (National Center for Advancing Translational Sciences (NCATS), 2011)
In all, about 390,000 compounds went through this assay and about 4,700 (1.2%) were called active. Inconclusive means that the source gave no clear call. Such entries were picked first, then a sample of the others. Calls follow the shape of the dose curve; as a rule, active = well fitted inhibition curve with a large enough effect; inconclusive = small, poorly fitted or top-dose-only effect, or another doubt; inactive = no such curve, though single readings can be large or run the other way. Potencies beside an inconclusive call are fits to weak or partial responses and may not hold up.

What follows are compounds tested against DNA polymerase eta (Homo sapiens) (UniProt Q9Y253) (assay: qHTS for Inhibitors of Polymerase Eta). Settings: recombinant Pol eta, fluorescent DNA replication assay; series mostly up to 114 µM; activity change, negative = inhibition: at the top concentration.
In short: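 Pol eta at 10 nM preincubated with compounds 15 min at room temperature; reaction started with fluorescent substrate (50 nM final) and read kinetically at 0 and 10 min.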
% is scaled to controls: 0 for no effect and ±100 for the full control effect; potency is read from the fitted curve at half-maximal effect; tags tell the direction and shape of the fitted curve.

Sequence of UniProt Q9Y253 (Q9Y253 whole entry, looked up): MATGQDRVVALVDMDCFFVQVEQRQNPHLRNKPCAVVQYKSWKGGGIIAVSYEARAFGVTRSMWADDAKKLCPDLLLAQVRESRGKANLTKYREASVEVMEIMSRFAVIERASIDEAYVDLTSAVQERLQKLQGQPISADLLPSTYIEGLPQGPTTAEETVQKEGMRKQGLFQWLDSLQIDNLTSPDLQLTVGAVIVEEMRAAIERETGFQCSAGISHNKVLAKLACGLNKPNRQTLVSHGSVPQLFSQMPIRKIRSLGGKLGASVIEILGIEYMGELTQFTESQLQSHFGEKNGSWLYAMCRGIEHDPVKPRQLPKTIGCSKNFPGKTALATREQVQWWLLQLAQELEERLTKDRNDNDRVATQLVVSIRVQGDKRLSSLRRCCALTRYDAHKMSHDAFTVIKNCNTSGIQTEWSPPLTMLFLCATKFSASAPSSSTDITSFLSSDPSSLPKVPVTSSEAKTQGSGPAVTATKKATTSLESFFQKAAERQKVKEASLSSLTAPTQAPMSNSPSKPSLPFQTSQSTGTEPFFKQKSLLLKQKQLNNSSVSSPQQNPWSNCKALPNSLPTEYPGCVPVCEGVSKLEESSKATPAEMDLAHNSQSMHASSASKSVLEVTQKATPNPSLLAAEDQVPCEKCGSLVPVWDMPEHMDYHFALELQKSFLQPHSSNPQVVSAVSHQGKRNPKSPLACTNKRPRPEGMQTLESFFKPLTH

SMILES	Potency	activity change, negative = inhibition
CCN1C(=S)SC(=O)C1=C1C=C(C)N(Cc2ccco2)C(C)=C1	inconclusive: 14.1 µM [inhibitor, partial curve, poor fit]	–
O=C1c2sc3nc4n(c(=O)c3c2CCC1Br)CCCCC4 (stereo not given)	inconclusive: 14.1 µM [inhibitor, full curve, poor fit]	–
O=C(CSc1nc2ncccc2[nH]1)Nc1ccccc1-c1ccccc1	–	inactive: -0.687%
COc1ccc(OC)c(NC(=O)COc2coc(CN3CCc4ccccc43)cc2=O)c1	inconclusive: 39.8 µM [inhibitor, single point]	–
N#Cc1cc(-c2ccccc2)nn1-c1ccccc1	–	inactive: -12.3%
Brc1cccc(C2Nc3cccc4cccc(c34)N2)c1	–	inactive: -7.33%
COc1ccccc1NS(=O)(=O)c1cc(N)ccc1N1CCOCC1	–	inactive: -18.4%
Cc1cc(C)cc(N2CN=c3s/c(=C\c4ccco4)c(=O)n3C2)c1	inconclusive: 56.2 µM [inhibitor, partial curve, poor fit]	–
Cc1ccc(C)c(N2CCN(C(=O)c3cc(S(=O)(=O)N4CCCC4)cn3C)CC2)c1	inconclusive: 100 µM [inhibitor, partial curve, poor fit]	–
Cc1ccccc1NC(=O)Cn1nc(-c2ccc(F)cc2)c2cnc3ccccc3c21	–	inactive: -10.3%
COc1ccc(NC(=O)c2ccc(NCCN3C(=O)CCC3=O)c([N+](=O)[O-])c2)cc1	inconclusive: 79.4 µM [inhibitor, partial curve]	–
Cc1ccc(NC(=O)c2cccc(C(=O)Nc3ccc(C)cc3C(=O)O)c2)c(C(=O)O)c1	inconclusive: 28.2 µM [inhibitor, single point]	–
COc1ccc2nc3c(nc2c1)CCCC3	inconclusive: 22.4 µM [inhibitor, full curve, poor fit]	–
O=C(CSc1nnc(-c2cccc(S(=O)(=O)N3CCCC3)c2)n1-c1ccccc1)Nc1ccc(C(=O)O)cc1	active: 35.5 µM	–
CCOc1ccc(/C(O)=C2/C(=O)C(=O)N(c3nc(C)c(C)s3)C2c2ccco2)cc1 (stereo not given)	inconclusive: 11.2 µM [inhibitor, partial curve]	–
CC1C(=O)N2CCCc3cc(S(=O)(=O)N(C)Cc4ccccc4)cc1c32 (stereo not given)	–	inactive: -10.6%
Cc1ccc(-c2cc(C(=O)NCc3ccccc3)c3c(-c4ccc(C)cc4)[nH]nc3n2)cc1	–	inactive: -13.2%
O=C(N/N=C/c1ccc(-c2ccccc2)o1)c1ccccc1O	inconclusive: 56.2 µM [inhibitor, partial curve, poor fit]	–
Cc1cccc2c1NC(=O)/C2=C\C(=O)c1cccs1	inconclusive: 28.2 µM [inhibitor, single point]	–
Cc1ccc2nc(NC(=O)c3cc(=O)c4cc(Cl)ccc4o3)sc2c1	–	inactive: -5.65%
COc1ccc2oc(C(=O)OCc3nnc(-c4ccccc4)o3)c(C)c2c1	inconclusive: 22.4 µM [inhibitor, partial curve, poor fit]	–
Cc1nnc2sc(-c3ccc(N(C)C)cc3)nn2c1=O	inconclusive: 39.8 µM [inhibitor, full curve]	–

SMILES	Potency	activity change, negative = inhibition
c1ccc2c(c1)OCC(c1nn3c(Cn4nnc5ccccc54)nnc3s1)O2 (stereo not given)	inconclusive: 79.4 µM [inhibitor, partial curve]	–
COc1ccccc1N1CCN(C(=O)c2cc3c(s2)CCC3)CC1	inconclusive: 3.16 µM [inhibitor, full curve, poor fit]	–
CC1(C)OC(=O)C(=C2CCCN2)C(=O)O1	inconclusive: 31.6 µM [inhibitor, partial curve, poor fit]	–
C[C@H]1CN([C@@H](C)CO)C(=O)Cc2cc(NC(=O)CCC(F)(F)F)ccc2O[C@H]1CN(C)S(=O)(=O)c1ccc(Cl)cc1	inconclusive: 100 µM [inhibitor, partial curve, poor fit]	–
COc1ccc(NC(=S)Nc2ccc3nsnc3c2)cc1	active: 7.08 µM	–
CC(C)(C)C1COc2ccccc2N1C(=O)c1ccccc1Cl (stereo not given)	inconclusive: 89.1 µM [inhibitor, partial curve, poor fit]	–
Cc1cccc(N2CCN(S(=O)(=O)c3ccc4[nH]c(=O)ccc4c3)CC2)c1C	–	inactive: 4.53%
CC(C)C[C@H]1CN=C(Nc2ccccc2)N1CCCC1CCCC1	inconclusive: 89.1 µM [inhibitor, partial curve, poor fit]	–
Cc1[nH]c2ccccc2c1/C=N/NC(=O)c1cc(-c2cccs2)[nH]n1	inconclusive: 35.5 µM [inhibitor, partial curve, poor fit]	–
O=C1c2ccccc2NC(c2ccccc2)N1Cc1ccco1 (stereo not given)	inconclusive: 17.8 µM [inhibitor, single point]	–
CCN(CCO)c1nc(N2CCCCC2)c2cnn(C)c2n1	inconclusive: 89.1 µM [inhibitor, partial curve, poor fit]	–
Cc1cc(NC(=O)CSc2nc3c(C)cccc3cc2C)no1	–	inactive: -4.35%
Cc1ncc(CO)c2c1Oc1nc(-c3ccccc3)nc(SCC(=O)Nc3cccc(C(F)(F)F)c3)c1C2	inconclusive: 79.4 µM [inhibitor, single point]	–
O=C(NC(NC1CCS(=O)(=O)C1)C(=O)c1cccs1)c1ccccc1 (stereo not given)	–	inactive: -20.9%
Cc1ccc(OCCCCn2c(CCNC(=O)C(C)(C)C)nc3ccccc32)cc1	inconclusive: 70.8 µM [inhibitor, partial curve, poor fit]	–
CCCCNCC(=O)Nc1ccc(NC(=O)CNCCCC)cc1	inconclusive: 89.1 µM [inhibitor, single point]	–
O=C(Nc1ccc2nc(-c3ccco3)c(-c3ccco3)nc2c1)N1CCN(c2ccccn2)CC1	active: 3.16 µM	–
CCn1nc(C(=O)OCC(=O)Nc2ncc(Cl)c(C)c2Cl)c2ccccc2c1=O	inconclusive: 12.6 µM [inhibitor, full curve, poor fit]	–
COc1ccc(C(=O)Nc2nnc(C3=COCCO3)o2)cc1OC	inconclusive: 89.1 µM [inhibitor, partial curve, poor fit]	–
CCCc1ccc(OCC(O)CN2CCN(c3ccccc3)CC2)cc1 (stereo not given)	inconclusive: 3.16 µM [inhibitor, full curve, poor fit]	–
Cc1ccc(-n2c(O)c(/C=N/Nc3ccc(S(=O)(=O)N4CCOCC4)cc3[N+](=O)[O-])c3ccccc3c2=O)c(C)c1	active: 44.7 µM	–
Nc1ccc(-c2ccc(N)cc2C(F)(F)F)c(C(F)(F)F)c1	inconclusive: 39.8 µM [inhibitor, partial curve, poor fit]	–

SMILES	Potency	activity change, negative = inhibition
COc1ccc(CCN2C(=O)N(c3ccc(F)cc3)C(=O)C2CC(=O)Nc2ccc(F)c(F)c2)cc1 (stereo not given)	inconclusive: 56.2 µM [inhibitor, partial curve, poor fit]	–
c1cc2c3c(cccc3c1)NN=N2	inconclusive: 31.6 µM [inhibitor, partial curve, poor fit]	–
Cc1cc(NC(=O)CCSc2nc(-c3ccco3)cc(C(F)(F)F)n2)n(-c2ccccc2)n1	inconclusive: 44.7 µM [inhibitor, partial curve, poor fit]	–
COc1ccc(OC)c(/C=N/NC(=O)c2cc3c(OC)c(OC)ccc3[nH]2)c1	inconclusive: 15.8 µM [inhibitor, full curve, poor fit]	–
Cc1csc(NC(=O)CSc2nsc(SCC(=O)Nc3nc(C)cs3)c2C#N)n1	–	inactive: -3.66%
COc1c(C)cc(S(=O)(=O)NCc2ccco2)c(C)c1C	inconclusive: 89.1 µM [inhibitor, partial curve, poor fit]	–
Cc1cc(-c2ccco2)n2c(nc3ccccc32)c1C#N	inconclusive: 28.2 µM [inhibitor, partial curve, poor fit]	–
CN(C)/C=C/C(=O)c1ccc(S(=O)(=O)c2ccccc2)cc1	inconclusive: 79.4 µM [inhibitor, partial curve, poor fit]	–
CCS(=O)(=O)N1N=C(c2ccc(C)cc2)CC1c1cc2ccc(OC)cc2nc1Cl (stereo not given)	inconclusive: 35.5 µM [inhibitor, partial curve, poor fit]	–
COP(=O)(OC)c1ccc(NCc2cc(O)ccc2O)cc1	active: 10 µM	–
CCN=C1S/C(=C/c2ccc(-c3ccc(Cl)cc3C(=O)O)o2)C(=O)N1CC	active: 35.5 µM	–
CC(C(=O)O)n1ncc2ccccc2c1=O (stereo not given)	inconclusive: 100 µM [inhibitor, partial curve, poor fit]	–
Cc1ccc2nc(N3C(=O)C(O)=C(C(=O)c4ccco4)C3c3ccc(C)o3)sc2c1 (stereo not given)	inconclusive: 31.6 µM [inhibitor, single point]	–
O=C(O)C(=O)/C(=C\c1cccc2ccccc12)c1ccc2ccccc2n1	inconclusive: 100 µM [inhibitor, partial curve, poor fit]	–
O=C(OCc1nnc(-c2ccccc2)o1)c1cc2ccccc2cc1O	–	inactive: -15.8%
COc1ccc2cc(C(=O)NCc3ccco3)c(=Nc3ccc(C(=O)O)cc3)oc2c1	active: 89.1 µM	–
Cc1[nH]c2ccccc2c1N=Nc1ccccc1C(=O)O	active: 35.5 µM	–
O=[N+]([O-])c1cccc(C=NN2CCCCCC2)c1	inconclusive: 100 µM [inhibitor, partial curve, poor fit]	–
CCC(C)NC(=O)c1cc2c(=O)[nH]c3ccc(C)cc3c2s1 (stereo not given)	inconclusive: 50.1 µM [inhibitor, partial curve]	–
CC(=O)Nc1ccc(Cl)cc1-c1ccccc1	inconclusive: 100 µM [inhibitor, partial curve, poor fit]	–
Cc1ccc2cc3cc(C(=O)Nc4ccc(F)cc4Cl)oc3nc2c1	–	inactive: -2.99%
